From article PMC3694053 come the findings set out here.

By UniProt entry, the sequences of proteins in these tests, tags left out. Where a name states a change or a piece, a line headed by the entry shows the natural chain unless it says otherwise.
UniProt Q15208: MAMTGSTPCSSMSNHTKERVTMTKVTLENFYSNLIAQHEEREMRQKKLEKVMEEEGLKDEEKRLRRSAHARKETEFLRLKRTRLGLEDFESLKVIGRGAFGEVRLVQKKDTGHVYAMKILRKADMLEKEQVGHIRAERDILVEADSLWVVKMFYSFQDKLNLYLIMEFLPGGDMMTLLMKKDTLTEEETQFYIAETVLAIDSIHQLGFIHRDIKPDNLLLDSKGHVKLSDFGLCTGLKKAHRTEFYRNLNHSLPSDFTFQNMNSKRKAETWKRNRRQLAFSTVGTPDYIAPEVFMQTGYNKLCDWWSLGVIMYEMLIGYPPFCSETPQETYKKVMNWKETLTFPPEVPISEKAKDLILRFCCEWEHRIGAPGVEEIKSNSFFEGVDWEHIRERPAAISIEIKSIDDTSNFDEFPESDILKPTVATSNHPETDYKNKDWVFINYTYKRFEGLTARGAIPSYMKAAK

In one assay the target is T1, MYC-SnoN (UniProt P12757).
T1 sequence: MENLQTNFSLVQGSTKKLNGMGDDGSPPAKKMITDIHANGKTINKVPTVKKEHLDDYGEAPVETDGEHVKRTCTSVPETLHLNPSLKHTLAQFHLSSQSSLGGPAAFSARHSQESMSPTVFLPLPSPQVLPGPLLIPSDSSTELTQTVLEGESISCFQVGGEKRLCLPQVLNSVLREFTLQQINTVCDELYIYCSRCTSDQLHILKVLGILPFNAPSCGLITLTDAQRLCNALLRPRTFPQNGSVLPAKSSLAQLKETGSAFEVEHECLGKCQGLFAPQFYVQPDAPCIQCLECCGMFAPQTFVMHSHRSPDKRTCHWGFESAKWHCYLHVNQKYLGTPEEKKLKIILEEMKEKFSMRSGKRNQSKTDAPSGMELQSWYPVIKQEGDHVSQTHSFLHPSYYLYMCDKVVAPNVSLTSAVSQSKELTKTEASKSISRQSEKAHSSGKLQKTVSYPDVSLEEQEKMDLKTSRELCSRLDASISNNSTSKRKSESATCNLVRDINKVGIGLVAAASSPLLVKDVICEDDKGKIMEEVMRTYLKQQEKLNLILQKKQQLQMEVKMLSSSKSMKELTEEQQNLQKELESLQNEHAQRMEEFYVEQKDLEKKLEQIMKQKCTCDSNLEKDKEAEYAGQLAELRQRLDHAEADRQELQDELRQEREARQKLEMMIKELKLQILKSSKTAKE
Nature of the assay: co-IP; 293T cells expressing Rluc-NDR1 (wild type or deletion mutants) alone or with MYC-SnoN; immunoprecipitation with the MYC or SnoN antibody, Renilla luciferase activity of the immunoprecipitate normalised to expression.

In assay [1] the target is T2, endogenous SnoN (human (endogenous in 293T)) (UniProt P12757).
T2 sequence: T1 sequence
Nature of the assay: co-IP; 293T cells expressing Rluc, Rluc-SnoN or Rluc-NDR1; immunoprecipitation of the endogenous partner (NDR1 or SnoN antibody, IgG as control), Renilla luciferase activity of the immunoprecipitate as read-out.

The target of assay [2] is endogenous NDR1 (nuclear Dbf2-related 1) (human (endogenous in HaCaT and 293T)) (UniProt Q15208). Nature of the assay: co-IP; untreated or TGFβ-treated 293T cells; immunoprecipitation with the NDR1 antibody or IgG, immunoblotting with the SnoN or NDR1 antibody; both proteins endogenous. On the technique in general: A western blot detects proteins with antibodies after separation by electrophoresis.

Assay [3] deals with HA-NDR1 (UniProt Q15208). Nature of the assay: co-IP; 293T cells expressing MYC-SnoN and HA-NDR1; immunoprecipitation with the HA antibody or the SnoN antibody, immunoblotting; TNE-based buffer with 0.5% Triton X-100.
Assay [4] has as its target HA-NDR1 (UniProt Q15208). Nature of the assay: co-IP; 293T cells expressing Rluc-SnoN (wild type or deletion mutants) alone or with HA-NDR1; immunoprecipitation with the HA antibody, Renilla luciferase activity of the immunoprecipitate normalised to Rluc-SnoN and NDR1 expression.
In assay [5] the target is endogenous NDR1 (nuclear Dbf2-related 1) (human (endogenous in HaCaT and 293T)) (UniProt Q15208). Nature of the assay: co-IP; 293T cells expressing Rluc, Rluc-SnoN or Rluc-NDR1; immunoprecipitation of the endogenous partner (NDR1 or SnoN antibody, IgG as control), Renilla luciferase activity of the immunoprecipitate as read-out.

Results are given in words; binding and its absence hold for the method and conditions named. Binding seen in cells or lysates may run through a third protein. Some entries that bind do so weakly or less than the wild type. For part of these data: Where a sequence is shown, tags or fusion partners need not be part of it.

“Rluc-NDR1 with deletion of the N-terminal 82 amino acid residues (from UniProt Q15208 83-465) (domain or fragment)”: the binding entry with MYC-SnoN is given as “binds”.

Regarding “Rluc-NDR1 (wild type, aa1–465) (from UniProt Q15208 1-465)”, the binding result (in assay [1]; with MYC-SnoN) was “binds” throughout.

B1: endogenous SnoN (protein, UniProt P12757-1 1-684)
chain: T1 sequence
On to B1, for which, in assay [2], the binding result was “binds”.

B2: MYC-SnoN (protein, UniProt P12757-1 1-684)
chain: T1 sequence
B2: the binding result with HA-NDR1 [3] is given as “binds”.

B3: Rluc-SnoN (wild type, aa 1–684) (protein, UniProt P12757-1 1-684)
chain: T1 sequence
Take B3: the binding entry (with HA-NDR1 [4]; in assay [5]) was “binds” throughout.

B4: Rluc-SnoN lacking the N-terminal 96 amino acids (domain or fragment, UniProt P12757-1 97-684)
chain: SQSSLGGPAAFSARHSQESMSPTVFLPLPSPQVLPGPLLIPSDSSTELTQTVLEGESISCFQVGGEKRLCLPQVLNSVLREFTLQQINTVCDELYIYCSRCTSDQLHILKVLGILPFNAPSCGLITLTDAQRLCNALLRPRTFPQNGSVLPAKSSLAQLKETGSAFEVEHECLGKCQGLFAPQFYVQPDAPCIQCLECCGMFAPQTFVMHSHRSPDKRTCHWGFESAKWHCYLHVNQKYLGTPEEKKLKIILEEMKEKFSMRSGKRNQSKTDAPSGMELQSWYPVIKQEGDHVSQTHSFLHPSYYLYMCDKVVAPNVSLTSAVSQSKELTKTEASKSISRQSEKAHSSGKLQKTVSYPDVSLEEQEKMDLKTSRELCSRLDASISNNSTSKRKSESATCNLVRDINKVGIGLVAAASSPLLVKDVICEDDKGKIMEEVMRTYLKQQEKLNLILQKKQQLQMEVKMLSSSKSMKELTEEQQNLQKELESLQNEHAQRMEEFYVEQKDLEKKLEQIMKQKCTCDSNLEKDKEAEYAGQLAELRQRLDHAEADRQELQDELRQEREARQKLEMMIKELKLQILKSSKTAKE
For B4, the binding result with HA-NDR1 [4] is on record as “binds”.

B5: Rluc-SnoN N-terminal 96 amino acids (domain or fragment, UniProt P12757-1 1-96)
chain: MENLQTNFSLVQGSTKKLNGMGDDGSPPAKKMITDIHANGKTINKVPTVKKEHLDDYGEAPVETDGEHVKRTCTSVPETLHLNPSLKHTLAQFHLS
With B5, in the assay with HA-NDR1 [4], the binding result was “no binding”.
